For 73 sequences, binding signal (log2 normalized intensity) results are on record in article PMC10726135.

The list shows a part of the results. At the low end of the ranking the order means little. Measured with an extract: partners may take part in the binding.

The target of this experiment is T1, HNF4alpha8 (COS-7 nuclear extract) (UniProt P41235-5).
T1 sequence: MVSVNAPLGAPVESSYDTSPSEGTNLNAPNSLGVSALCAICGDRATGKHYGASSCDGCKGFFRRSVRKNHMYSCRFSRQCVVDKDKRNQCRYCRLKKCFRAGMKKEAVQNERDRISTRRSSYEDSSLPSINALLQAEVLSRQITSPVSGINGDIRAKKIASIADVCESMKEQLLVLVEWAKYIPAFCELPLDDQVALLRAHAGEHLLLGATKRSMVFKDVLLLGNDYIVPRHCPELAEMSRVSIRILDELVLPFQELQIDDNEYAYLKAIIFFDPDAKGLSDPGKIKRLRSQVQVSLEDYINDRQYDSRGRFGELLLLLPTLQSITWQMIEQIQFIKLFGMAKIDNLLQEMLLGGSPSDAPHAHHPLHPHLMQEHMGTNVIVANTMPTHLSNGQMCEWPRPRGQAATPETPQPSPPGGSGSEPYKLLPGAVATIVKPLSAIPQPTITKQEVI
The experiment in a line: protein-binding microarray. Conditions: COS-7 nuclear extract on double-stranded Agilent 4x180k PBM; binding buffer, salt, pH and temperature not given; high values mean tight binding; double strand, one strand shown; sequences stand for … in …GCCTAGGGAGATTAGAGTATCGGTCGA
Regarding CCCTTCTGTCAAGTCCAAAGTTCTTGGCCA, the binding signal (log2 normalized intensity) was 4.31.
Regarding CCTGTCACCTCCCTCAGAGCTCAGATGAAC, the binding signal (log2 normalized intensity) was found to be 0.526.
For CTTTAAGTAGGCACTATTATCCCCCTATCC, the binding signal (log2 normalized intensity) turned out to be 3.58.
For GGATTAAAGAATTCGTCCAGGGCCGCCCAA, the binding signal (log2 normalized intensity) is -1.32.
Take GCTCTGCTACTGACCAGATGTTATTACTTA: the binding signal (log2 normalized intensity) is 0.449.
With TAACTGTGCTTCTGGGGTATAAAGGTCAGG, the binding signal (log2 normalized intensity) is 5.86.
As to GGGTCCTGGCAGCACCTGAAGAATTTGGAC, the binding signal (log2 normalized intensity) turned out to be 1.76.
Then GCGGGGAAAAGGGAGTAAAGGTCACGCAGG, with 5; and GTTCTGTGGAATTTGTGCTTATTTCCCATC, with 1.78.
With GGCTCCCAGTGGCCCCTGAGCACTGTCTCA, the binding signal (log2 normalized intensity) was -1.14.
As for GCTGTGATGAGGCCAGCAGGGTGCCCCCTC, the binding signal (log2 normalized intensity) was determined as 3.81.
ATCTCTTTGACACAAAGGGAGGCCTAGACA: the binding signal (log2 normalized intensity) is -1.32.
Turning to GCATACGCTAGCTTTCTGGTCTTTGTTCTT, the binding signal (log2 normalized intensity) was determined as 2.13.
For the sequence AGAGAGCAGGAGCCACCTGTCACTCAATGC, the binding signal (log2 normalized intensity) is -1.36.
The figure for CAGAACAGGCTGTTTTCCTATAGATTTGTT is -0.408; for TGTTTCCACTCCAGCCTCTCCACCAGGGGA it is -1.38.
Consider CTGTGAAAATTGGTACTGGACATGGTCTAA, for which the binding signal (log2 normalized intensity) came to 0.824.
Take AGTCAAAGGTCCCCACCACAAAGGCCAGAG: the binding signal (log2 normalized intensity) amounted to 2.8.
For CACAGTATGTTAATGGCAGAATCAAAGGTC, the binding signal (log2 normalized intensity) was 5.19.
Regarding CATAAAGGACTTTCAACCCTGTGATGACCC, the binding signal (log2 normalized intensity) was determined as 4.91.
Turning to GAGTGGGATGGCCATTGTTCATACTGCAGC, the binding signal (log2 normalized intensity) was 0.147.
As to CAACACACCTGTGGGTAATTAACTCCCCCT, the binding signal (log2 normalized intensity) stood at 3.16.
As to GGGTGGTTCATTTGCACTTGTTTTTTCAGG, the binding signal (log2 normalized intensity) was 1.49.
For the sequence CTTTCCCTCCACCAAGTTTCCCACACTCAG, the binding signal (log2 normalized intensity) was 1.35.
On to CTCATGAAGATTCTTTGGTTGGGAATAACA, for which the binding signal (log2 normalized intensity) amounted to 0.85.
Consider CAGCAGGGTCTTTTTGACCTGTATCTTGTG, for which the binding signal (log2 normalized intensity) was found to be 3.15.
Regarding AATTCCAGGGCTGGGTCCAGGAATGTGCTA, the binding signal (log2 normalized intensity) was -0.0196.
For the sequence ATCAAGTCCGAACTCACTACAAACGCCTCT, the binding signal (log2 normalized intensity) is -1.48.
As to GTGCTTCTGGGGTATAAAGGTCAGGGATAG, the binding signal (log2 normalized intensity) came out at 4.42.
On to TGGTGTTAAATCCTATCCTAGGGTTAAAGT, for which the binding signal (log2 normalized intensity) is 2.93.
As to CCATTTCCCATCCCCAGAGCCCCCTTGATG, the binding signal (log2 normalized intensity) was found to be 4.92.
Then AAGTGGCAATAAACTCCGTTATCACTCCTG, with -1.08; and AACCCAGGCAATGACTCCAAAGTTCAAACT, with 4.53.
For CATCTCGTCAAGGTGAAAAGCCTTTTGAAG, the binding signal (log2 normalized intensity) was 0.289.
As to ACGCCCACTGCTTTGTTCCCTGGCTCACTG, the binding signal (log2 normalized intensity) is -1.26.
On to GTTAGAACAAAGTCCAAATTCCTAACTATG, for which the binding signal (log2 normalized intensity) worked out at 4.38.
For GTCTGGGAAAGCTGCAGGCATGAGAGGTGC, the binding signal (log2 normalized intensity) was -1.38.
TGGGCGAGCCCTCTGATCTGACCCCTTCTT: the binding signal (log2 normalized intensity) is 5.31.
Turning to GACATTCCAGCCTCCAGCTACTCACTCTTC, the binding signal (log2 normalized intensity) is -1.12.
On to ATGAGGCGGTTCATCCAACAGGTGAGGTGG, for which the binding signal (log2 normalized intensity) is -1.28.
The figure for GGAACACAAAGAAAGCCAAAGTTCACCCTT is 3.16; for CAACCGGAAGTGGCTAGAGGTCGCGAGAGA it is -1.3; for ATATCCTGACTGCTGACCTTTAAGCCTATA it is 4.7.
In the case of TAACCCATCTGGGGAAAGTGCAAGGGCCCA, the binding signal (log2 normalized intensity) was -1.31.
TTTCAACTGCAGGGGGGTGGGCACCCCTGC: the binding signal (log2 normalized intensity) was -1.35.
As to CAGGTGTAAAGTCTGGCATACAGGGTCCAA, the binding signal (log2 normalized intensity) was 3.64.
The figure for GTTAAAGTCCACATTCTTTAGCATATTACA is 1.37; for GGGAGTAGGGACAGCTAGTCTAGACTTTGC it is 4.14; for TCAGGAATCGCATTGCAAAATCCATCTAAA it is -1.36.
With ATGGGCAGTCCCTATAGCCTCACTTGCTGA, the binding signal (log2 normalized intensity) was -1.35.
As to TGTCCAAGGGTCACTCGACATTCATCATGA, the binding signal (log2 normalized intensity) amounted to 1.98.
The figure for GGCACAGGAACCTGTTTTACAGGACATAGT is -1.17; for GAGCCTAGGAGTTCAATGCTTCAGTGAGCC it is -1.26; for GGCTCAGGAGAAGGGCCCATGGGCTTCAGG it is -1.32.
For TACTAATCCTCTTCTGTCCTCCTGTGGCCA, the binding signal (log2 normalized intensity) came to 0.916.
Consider GTGAGAACAGAGTCTCCGAGGAACCCAGAC, for which the binding signal (log2 normalized intensity) is -1.31.
Then TAAAGGGGATTTTCTCAGCTCTCCTCTGCC, with -1.
In the case of CCACAGGTCAATCCAGGTTGCTGCCTAGTT, the binding signal (log2 normalized intensity) was -0.138.
Turning to TGTACACAGTTCAAAGGGCAGACAGGAACA, the binding signal (log2 normalized intensity) was found to be 3.72.
On to CATTTCTGTATCCCTGTTATCTGGCAGATA, for which the binding signal (log2 normalized intensity) is 0.161.
Regarding GACTTCAAAGGCATTTCTGGACTTGGATCA, the binding signal (log2 normalized intensity) is 4.28.
Turning to CTCTCTGTATTCCCTCTCTTCAGAATGGCC, the binding signal (log2 normalized intensity) came out at 1.91.
For TTTAAAAACTTATCTTGTGACCTTTGACTC, the binding signal (log2 normalized intensity) was 8.96.
With CCTCTTTGAGTCTGGTGTTCTCTTGGCCAA, the binding signal (log2 normalized intensity) came to 1.63.
For the sequence GAGCACTTTTGGTATGCAAGGCATGGTGCT, the binding signal (log2 normalized intensity) is -1.33.
The figure for CAGCTGCGCGGCCTCCCCAGAGGCTGGTCA is -1.14.
Take GGGGAGCGTAAAACCACTGGCCCATTAGAA: the binding signal (log2 normalized intensity) is -1.25.
The figure for GGTTTTAGGCTATCAGACAGCCACACTTTA is -0.989; for CAGATGGATTGATAGACTTATCTCAGCCTG it is -1.31.
The figure for ACAGCTCCTGAGTCCACATGAGCCTCTTTA is -1.4.
Take TTTGACTGGTGTGAGGTCAGTTGATAAACA: the binding signal (log2 normalized intensity) turned out to be 1.59.
On to CGCCAGGCGGGTTCTGCCATCTCGCAGAAA, for which the binding signal (log2 normalized intensity) was -1.33.
The figure for CCCCCTTTTGCTTTCCGTTAGGCTACAGTG is 0.887.
